According to PubChem BioAssay AID686978 (National Center for Advancing Translational Sciences (NCATS), 2013):
Out of some 420,000 compounds screened, about 64,000 (15%) were called active. This list was built around the results that the source calls inconclusive (neither active nor inactive); the mix of calls is not that of the screen. Calls come from the whole dose curve; as a rule, active = well fitted inhibition curve with a large enough effect; inconclusive = small, poorly fitted or top-dose-only effect; inactive = flat fitted curve, though single readings scatter. Potencies of inconclusive entries are left out as doubtful fits.

assay: qHTS for Inhibitors of human tyrosyl-DNA phosphodiesterase 1 (TDP1): qHTS in cells in absence of CPT; settings: DT40 Tdp1-/- hTDP1 cells, no CPT, ATP luminescence, 48 h; activity change, negative = growth inhibition: at 46.2 µM (top of the series) unless noted; note: nearly all actives have a fitted effect of over 55% in size
In short: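 Compound effects on proliferation are scored in DT40 Tdp1-/-;hTDP1 cells in the absence of CPT. ATP levels (CellTiter-Glo luminescence) are recorded after a ≥48 hr, 37 °C incubation.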
% is set by controls: 0 for no effect and ±100 for the full control effect; potency is the fitted concentration of half-maximal effect; tags give direction and shape of the fitted curve.

**Q.** Which Potency does the source give for O=C(c1ccc(Cl)cc1)c1cccc(O)c1 here?
**A.** inconclusive [inhibitor, single point]

**Q.** Which Potency does the source give for CC(C)Oc1cc(F)ccc1-c1cc(C(=O)NCc2cccnc2)[nH]n1 here?
**A.** inconclusive [inhibitor, single point]

**Q.** Which Potency does the source give for CCOC(=O)N1CCN=C1SCc1ccc(C(F)(F)F)cc1 here?
**A.** inconclusive [inhibitor, single point]

**Q.** Which Potency does the source give for CCOc1ccc(NC(=O)C(=O)NCCc2csc(-c3ccc(F)cc3)n2)cc1 here?
**A.** inactive

**Q.** Which Potency does the source give for COc1ccc(NC(=O)OCCN2CCN(Cc3ccccc3)CCC2=O)cc1 here?
**A.** inactive

**Q.** With CCOc1cc(/C=C2/C(=N)N3C(=NC2=O)SN=C3S(C)(=O)=O)ccc1OS(=O)(=O)c1ccccc1 as the compound, how does the Potency read?
**A.** active: 20.6 µM

**Q.** For COc1ccc(NS(=O)(=O)c2ccc(F)cc2F)cn1, which activity change, negative = growth inhibition is on record?
**A.** inconclusive: -30.2% [inhibitor]

**Q.** With Cc1ccccc1OCc1nnc(SCC(=O)Nc2ccc3nc(SCC(=O)NC(C)(C)C)sc3c2)n1C as the compound, how does the Potency read?
**A.** inconclusive [inhibitor, single point]

**Q.** Which Potency does the source give for Cc1ccc(NC(=O)C(C)OC(=O)CCC2CCCCC2)cc1 (stereo not given) here?
**A.** inconclusive [inhibitor, partial curve, poor fit]

**Q.** Which Potency does the source give for CCC(=O)N1CCc2cc(Br)cc(S(=O)(=O)CCC(=O)NCCc3ccc(OC)c(OC)c3)c21 here?
**A.** inconclusive [inhibitor, partial curve]

**Q.** For CC1(c2ccc(Cl)cc2Cl)NC(=O)N(CC(=O)N2CCN(C(=O)c3ccco3)CC2)C1=O (stereo not given), which Potency is on record?
**A.** inconclusive [inhibitor, single point]

**Q.** With CC(=O)c1nn(-c2ccc(Cl)cc2)cc1C(=O)c1ccc(C)cc1 as the compound, how does the activity change, negative = growth inhibition read?
**A.** inconclusive: -32.1% [inhibitor]

**Q.** Which Potency does the source give for Cn1cc(S(=O)(=O)N2CCCCCC2)cc1C(=O)N1CCN(c2ccc(F)cc2)CC1 here?
**A.** inconclusive [inhibitor, single point]

**Q.** For CCOc1cc(/C=C/C(=O)c2ccc(O)cc2)ccc1OCC(=O)N(C)C, which Potency is on record?
**A.** inconclusive [inhibitor, single point]

**Q.** For COc1ccc(NS(=O)(=O)c2cc3[nH]c(=O)c(=O)[nH]c3cc2C)cc1Cl, which Potency is on record?
**A.** inactive

**Q.** For O=C(COc1ccccc1)Nc1ccccc1NS(=O)(=O)c1cccs1, which Potency is on record?
**A.** inactive

**Q.** Which Potency does the source give for O=C(c1ccco1)N1CCN(Cc2ccccc2F)CC1 here?
**A.** inactive

**Q.** For CC/C(=C\c1ccc(C(=O)OC)cc1)c1cc(OC)cc2oc3ccccc3c12, which Potency is on record?
**A.** inconclusive [inhibitor, single point]

**Q.** For Cc1ccc2c(c1)C1CN(C)CCC1N2C(=S)Nc1ccc(Cl)cc1Cl (stereo not given), which Potency is on record?
**A.** inactive

**Q.** Which Potency does the source give for CCS(=O)(=O)NCc1c(C)ncc2c1CCN(C(=O)c1csc(-c3cccs3)n1)C2 here?
**A.** inconclusive [inhibitor, partial curve]

**Q.** With Nc1cc(N2CCCCCC2)c2nonc2c1[N+](=O)[O-] as the compound, how does the Potency read?
**A.** inactive

**Q.** With O=C(CN1C(=O)NC2(CCCc3ccccc32)C1=O)c1ccc(F)cc1 (stereo not given) as the compound, how does the Potency read?
**A.** inconclusive [inhibitor, single point]

**Q.** For O=C(CN1C2=NCCN2c2ccccc21)c1ccco1, which Potency is on record?
**A.** inactive

**Q.** For CCn1c(N)c(C(=O)NCc2ccco2)sc1=S, which Potency is on record?
**A.** inactive

**Q.** For CCN(Cc1ccccc1)C(=O)CCS(=O)(=O)c1ccc2c(c1)n(C)c(=O)c(=O)n2C, which Potency is on record?
**A.** inactive

**Q.** With O=[N+]([O-])c1c(NCCCO)cc(N2CCCCCC2)c2nonc12 as the compound, how does the Potency read?
**A.** inconclusive [inhibitor, single point]

**Q.** Which Potency does the source give for O=C(CN1CCC(n2nnc3cc(F)ccc32)CC1)N1CCc2ccccc2C1 here?
**A.** active: 14.6 µM

**Q.** For O=C(NCc1ccc(Cl)cc1)[C@@H]1CCCN1S(=O)(=O)c1ccc(Cl)cc1, which Potency is on record?
**A.** inconclusive [inhibitor, single point]

**Q.** With Cc1ccc(-n2ncc3c(NCCCOC(C)C)ncnc32)c(C)c1 as the compound, how does the Potency read?
**A.** inconclusive [inhibitor, single point]

**Q.** For O=C(Nc1cccc2c1CCCC2)c1ccccc1Br, which Potency is on record?
**A.** inconclusive [inhibitor, single point]

**Q.** With COc1ccc(-n2nc(C(=O)N3CCC(C#N)CC3)c3c4ccccc4n(C)c3c2=O)cc1 as the compound, how does the Potency read?
**A.** inactive

**Q.** With CCN(CC)CCOc1ccc2c(c1)C(=O)c1cc(OCCN(CC)CC)ccc1-2 as the compound, how does the Potency read?
**A.** active: 10.3 µM

**Q.** With CC(=O)OCc1c(C)cc(C)c(/C=C(/C#N)C(N)=O)c1C as the compound, how does the Potency read?
**A.** inconclusive [inhibitor, single point]

**Q.** With Fc1ccc(C2c3[nH]c4ccccc4c3CCN2CCCn2cccn2)cc1 (stereo not given) as the compound, how does the Potency read?
**A.** inconclusive [inhibitor, single point]

**Q.** With O=C(Nc1ccn(Cc2cccc3ccccc23)n1)c1cccnc1 as the compound, how does the Potency read?
**A.** inconclusive [inhibitor, single point]

**Q.** Which Potency does the source give for O=C(NCc1cccc(F)c1)c1noc2c1CCCC2 here?
**A.** inconclusive [inhibitor, single point]

**Q.** With CSc1ccc(/C=N/NC(=O)c2cccs2)cc1 as the compound, how does the Potency read?
**A.** inconclusive [inhibitor, full curve]

**Q.** Which Potency does the source give for COc1ccc2c(c1)OC[C@H]1[C@H]2N2C(=O)CN(Cc3ccco3)C(=O)[C@@]2(C)[C@H]1c1ccccc1 here?
**A.** inconclusive [inhibitor, full curve, poor fit]

**Q.** For CCCCn1nnnc1C(CC)N1CCN(C/C=C/c2ccccc2)CC1 (stereo not given), which Potency is on record?
**A.** inconclusive [inhibitor, single point]

**Q.** For CC(OC(=O)CN1C(=O)NC2(CCCC2)C1=O)C(=O)Nc1cccc(Cl)c1 (stereo not given), which Potency is on record?
**A.** inactive

**Q.** Which Potency does the source give for Cn1c(N)c(C(=O)COC(=O)/C=C/c2ccc(OC(F)F)cc2)c(=O)n(C)c1=O here?
**A.** inconclusive [inhibitor, single point]

**Q.** Which Potency does the source give for COc1ccc(C(=O)N2[C@@H](C(C)C)COc3cc(Br)ccc3S2(=O)=O)cc1 here?
**A.** inconclusive [inhibitor, single point]

**Q.** Which Potency does the source give for COc1ccccc1-c1noc(-c2ccc(N3CCC(C)CC3)c([N+](=O)[O-])c2)n1 here?
**A.** active: 13 µM

**Q.** For CCN(Cc1ccccc1)C(=O)c1cc(COc2c(F)cccc2F)on1, which Potency is on record?
**A.** inconclusive [inhibitor, single point]

**Q.** With N#Cc1ccc(C(=O)NC(=S)N2CCOCC2)cc1 as the compound, how does the Potency read?
**A.** inactive

**Q.** With CCOc1ccc(C(=O)CN2CCN(S(=O)(=O)c3ccc(F)cc3)CC2)cc1 as the compound, how does the Potency read?
**A.** inconclusive [inhibitor, single point]

**Q.** With Cc1ccc(CN2CCN(/N=C\C(Br)=C\c3ccccc3)CC2)cc1 as the compound, how does the Potency read?
**A.** active: 8.2 µM

**Q.** Which Potency does the source give for O=C(CN1CCCC1)Nc1cc(C(F)(F)F)ccc1Cl here?
**A.** inactive

**Q.** Which Potency does the source give for CC(C)(C)c1nn(-c2ccccc2)c2nc(Cl)c(C=O)cc12 here?
**A.** inconclusive [inhibitor, single point]

**Q.** For Cc1ccc(C)c(NC(=O)CN(C)C(=O)c2ccc(-c3cccc(C(F)(F)F)c3)o2)c1, which Potency is on record?
**A.** active: 14.6 µM

**Q.** Which Potency does the source give for CCC(=O)N1CCc2cc(S(=O)(=O)NC(Cc3ccccc3)C(=O)Nc3ccc(C)cc3)ccc21 (stereo not given) here?
**A.** inconclusive [inhibitor, single point]

**Q.** Which Potency does the source give for CCOC(=O)C1CCCN(c2ncnc3c2cnn3-c2ccc(Cl)cc2)C1 (stereo not given) here?
**A.** inconclusive [inhibitor, single point]

**Q.** With COC(=O)C(Cc1cccc(C)n1)(c1ccccc1)c1ccccc1 as the compound, how does the Potency read?
**A.** inactive

**Q.** Which Potency does the source give for O=P(NCc1ccccc1)(OCc1ccccc1)OCc1ccccc1 here?
**A.** inconclusive [inhibitor, single point]

**Q.** For CC(C)C(=O)N1CCN(c2nc(-c3ccccc3)c3c(c2C#N)CCCC3)CC1, which Potency is on record?
**A.** inconclusive [inhibitor, single point]

**Q.** For CC(C)(C)NC(=O)NC(=O)CN1C(=O)NC(c2ccccc2)(c2ccccc2)C1=O, which Potency is on record?
**A.** active: 25.9 µM

**Q.** For COCCN1C=C(C(=O)OC)C(c2ccccc2C(F)(F)F)C(C(=O)OC)=C1, which Potency is on record?
**A.** inconclusive [inhibitor, single point]

**Q.** With O=C1CN(C(=S)NC(=O)c2ccccc2[N+](=O)[O-])CCN1 as the compound, how does the Potency read?
**A.** inactive

**Q.** For O=C(CC1Sc2ccc(C(F)(F)F)cc2NC1=O)Nc1ccc(Cl)c(C(F)(F)F)c1 (stereo not given), which Potency is on record?
**A.** inconclusive [inhibitor, single point]

**Q.** Which activity change, negative = growth inhibition does the source give for COc1cccc(S(=O)(=O)N(C)C[C@@H]2OCc3cnnn3CCCC(=O)N([C@H](C)CO)C[C@H]2C)c1 here?
**A.** inconclusive: -26.5% [inhibitor]

**Q.** With Cc1ccc(Nc2ncnc3c2nnn3Cc2ccccc2)cc1 as the compound, how does the Potency read?
**A.** inactive

**Q.** Which Potency does the source give for CCOC(=O)c1cccc(NC(=O)COc2nsnc2N2CCOCC2)c1 here?
**A.** inconclusive [inhibitor, single point]

**Q.** With COC(=O)C(C(=O)Nc1ccc(OC)cc1)C1CCCCCC1 (stereo not given) as the compound, how does the Potency read?
**A.** inconclusive [inhibitor, single point]

**Q.** Which Potency does the source give for O=C(COC(=O)CNC(=O)c1cccc([N+](=O)[O-])c1)Nc1cccc(S(=O)(=O)N2CCCC2)c1 here?
**A.** inconclusive [inhibitor, single point]

**Q.** For Cc1cc(N2CCCC(C(=O)Nc3ccc4c(c3)CCC4)C2)n2ncnc2n1 (stereo not given), which Potency is on record?
**A.** inconclusive [inhibitor, partial curve]

**Q.** Which Potency does the source give for O=C(O)CCC1(C(=O)O)CCC(=O)c2ccccc21 (stereo not given) here?
**A.** inconclusive [inhibitor, partial curve, poor fit]

**Q.** With O=C(NN=Cc1cc(=O)[nH]c(=O)[nH]1)c1ccncc1 as the compound, how does the Potency read?
**A.** inactive

**Q.** With CSCCC(=O)N1CCCC(CNC(=O)c2ccc(-c3ccccc3)cc2)C1 (stereo not given) as the compound, how does the Potency read?
**A.** inconclusive [inhibitor, single point]

**Q.** With O=c1cc(CN2CCN(c3ccccc3)CC2)nc2scc(-c3ccccc3)n12 as the compound, how does the Potency read?
**A.** active: 23.1 µM

**Q.** With O=C(O)c1cccc2c1C(=O)c1ccc(Cl)cc1S2(=O)=O as the compound, how does the Potency read?
**A.** inactive
